# According to the supplement of paper PMC8728848:
# The list shows a part of the results.
# B1: PX9961U-pdi-543-24-543 (Parabacteroides distasonis) (protein)
# chain: EEPVGEFLPGQVESEENIEGIVTGAYAVLDGYYASDAINSGCSNWQFGDVVSDDAYKGGGGTGDQNQIHLMEIFNANPTGIDFEARWAALYEGIKRCNQAIRLLNGSEVKNKEQRLAEMRFLRGHYYFNLKIIYNQIPWIDETLVDPNEYNKKSNIEFSSDQLWEKILEEFSAAYKVLPESQADYGRPTKMAARAYMAKVYLYQSKWKECLEACDEVIQSGKYELFPDFRNVFLPENDNCSEIIFAIQLSINDGSPNNENGSYGDRLLPPGGPYPVYGFLRPTQNLVNAYKTDVKGLPYNDGKDVSENDYVDVRLDHTLARPNIPFMDVQLYDWTPREASVYGPYSPKKRLVSLNSTYYSPIWPYVNALNFYVIRYADLLLWRAEAAIETGDLETGRKYINMIRERAKNTQHVKTMDQSQDAANYKVGVYDEPFKSKNEAVQALRMERRLEMAHEGIRFFDLVRWGVADEVINAYIAKEKVFRSHLQNAHFVKGKHEYFPIPQSMIDICGTEVMKQNPGY
# What was measured:
# Experiment in all cases: glycan array binding signal (z-score within array); higher = stronger binding
# Settings in all cases: glycan notation: IUPAC condensed, linker removed
# [1] = biological target: Gal(a1-3)Gal(b1-4)GlcNAc(b1-2)Man
# Summary of the method: (§1)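 Negative Z-scores can be read as non-binding. The Z-score is calculated within each array and then averaged across arrays of one protein sequence at different concentrations or buffers and across linkers. Arrays, 3228 in all, were curated from the Consortium for Functional Glycomics database and kept only where the protein sequence was available.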
# [2] = biological target: Gal(a1-3)Gal(b1-4)GlcNAc(b1-2)Man(a1-3)[Gal(a1-3)Gal(b1-4)GlcNAc(b1-2)Man(a1-6)]Man(b1-4)GlcNAc(b1-4)GlcNAc
# Summary of the method: as §1
# [3] = biological target: Gal(a1-3)Gal(b1-4)GlcNAc(b1-3)GalNAc
# Summary of the method: as §1
# [4] = biological target: Gal(a1-3)Gal(b1-4)GlcNAc(b1-6)GalNAc
# Summary of the method: as §1
# [5] = biological target: Gal(a1-3)Gal(b1-4)[Fuc(a1-3)]GlcNAc
# Summary of the method: as §1
# [6] = biological target: Gal(a1-3)Gal(b1-4)[Fuc(a1-3)]GlcNAc(b1-2)Man(a1-3)[Gal(a1-3)Gal(b1-4)[Fuc(a1-3)]GlcNAc(b1-2)Man(a1-6)]Man(b1-4)GlcNAc(b1-4)GlcNAc
# Summary of the method: as §1
# [7] = biological target: Gal(a1-3)GalNAc
# Summary of the method: as §1
# [8] = biological target: Gal(a1-3)[Gal(a1-4)]Gal(b1-4)GlcNAc
# Summary of the method: as §1
# [9] = biological target: Gal(a1-4)Gal(b1-3)GlcNAc(b1-2)Man(a1-3)[Gal(a1-4)Gal(b1-3)GlcNAc(b1-2)Man(a1-6)]Man(b1-4)GlcNAc(b1-4)GlcNAc
# Summary of the method: as §1
# [10] = biological target: Gal(a1-4)Gal(b1-4)Glc
# Summary of the method: as §1
# [11] = biological target: Gal(a1-4)Gal(b1-4)GlcNAc
# Summary of the method: as §1
# [12] = biological target: Gal(a1-4)Gal(b1-4)GlcNAc(b1-2)Man(a1-3)[Gal(a1-4)Gal(b1-4)GlcNAc(b1-2)Man(a1-6)]Man(b1-4)GlcNAc(b1-4)GlcNAc
# Summary of the method: as §1
# [13] = biological target: Gal(a1-4)Gal(b1-4)GlcNAc(b1-3)Gal(b1-4)Glc
# Summary of the method: as §1
# [14] = biological target: Gal(a1-4)GlcNAc
# Summary of the method: as §1
# [15] = biological target: Gal(a1-6)Glc
# Summary of the method: as §1
# [16] = biological target: Gal(b1-2)Gal
# Summary of the method: as §1
# [17] = biological target: Gal(b1-3)Gal
# Summary of the method: as §1
# [18] = biological target: Gal(b1-3)Gal(b1-4)GlcNAc
# Summary of the method: as §1
# [19] = biological target: Gal(b1-3)GalNAc
# Summary of the method: as §1
# [20] = biological target: Gal(b1-3)GalNAc(a1-3)[Fuc(a1-2)]Gal(b1-4)Glc
# Summary of the method: as §1
# [21] = biological target: Gal(b1-3)GalNAc(a1-3)[Fuc(a1-2)]Gal(b1-4)GlcNAc
# Summary of the method: as §1
# [22] = biological target: Gal(b1-3)GalNAc(b1-3)Gal
# Summary of the method: as §1
# [23] = biological target: Gal(b1-3)GalNAc(b1-3)Gal(a1-4)Gal(b1-4)Glc
# Summary of the method: as §1
# [24] = biological target: Gal(b1-3)GalNAc(b1-4)Gal(b1-4)Glc
# Summary of the method: as §1
# [25] = biological target: Gal(b1-3)GalNAc(b1-4)[Neu5Ac(a2-3)]Gal(b1-4)Glc
# Summary of the method: as §1
# [26] = biological target: Gal(b1-3)GlcNAc
# Summary of the method: as §1
# [27] = biological target: Gal(b1-3)GlcNAc(a1-3)Gal(b1-4)GlcNAc
# Summary of the method: as §1
# [28] = biological target: Gal(b1-3)GlcNAc(a1-6)Gal(b1-4)GlcNAc
# Summary of the method: as §1
# [29] = biological target: Gal(b1-3)GlcNAc(b1-2)Man
# Summary of the method: as §1
# [30] = biological target: Gal(b1-3)GlcNAc(b1-2)Man(a1-3)[Gal(b1-3)GlcNAc(b1-2)Man(a1-6)]Man(b1-4)GlcNAc(b1-4)GlcNAc
# Summary of the method: as §1
# [31] = biological target: Gal(b1-3)GlcNAc(b1-2)Man(a1-3)[Gal(b1-3)GlcNAc(b1-2)Man(a1-6)]Man(b1-4)GlcNAc(b1-4)[Fuc(a1-6)]GlcNAc
# Summary of the method: as §1
# [32] = biological target: Gal(b1-3)GlcNAc(b1-2)Man(a1-3)[GlcNAc(b1-4)][Gal(b1-3)GlcNAc(b1-2)Man(a1-6)]Man(b1-4)GlcNAc(b1-4)GlcNAc
# Summary of the method: as §1
# [33] = biological target: Gal(b1-3)GlcNAc(b1-2)[Gal(b1-3)GlcNAc(b1-6)]Man(a1-6)[Gal(b1-3)GlcNAc(b1-2)Man(a1-3)]Man(b1-4)GlcNAc(b1-4)GlcNAc
# Summary of the method: as §1
# [34] = biological target: Gal(b1-3)GlcNAc(b1-3)Gal(b1-3)GlcNAc
# Summary of the method: as §1
# [35] = biological target: Gal(b1-3)GlcNAc(b1-3)Gal(b1-4)Glc
# Summary of the method: as §1
# [36] = biological target: Gal(b1-3)GlcNAc(b1-3)Gal(b1-4)GlcNAc
# Summary of the method: as §1
# [37] = biological target: Gal(b1-3)GlcNAc(b1-3)Gal(b1-4)GlcNAc(b1-2)Man(a1-3)[Gal(b1-3)GlcNAc(b1-3)Gal(b1-4)GlcNAc(b1-2)Man(a1-6)]Man(b1-4)GlcNAc(b1-4)GlcNAc
# Summary of the method: as §1
binder,measurement,setting,value
B1,glycan array binding signal (z-score),[1],-0.346
same,glycan array binding signal (z-score),[2],3.05
same,glycan array binding signal (z-score),[3],0.724
same,glycan array binding signal (z-score),[4],-0.016
same,glycan array binding signal (z-score),[5],0.287
same,glycan array binding signal (z-score),[6],-0.326
same,glycan array binding signal (z-score),[7],-0.348
same,glycan array binding signal (z-score),[8],1.66
same,glycan array binding signal (z-score),[9],-0.428
same,glycan array binding signal (z-score),[10],0.133
same,glycan array binding signal (z-score),[11],-0.447
same,glycan array binding signal (z-score),[12],2.13
same,glycan array binding signal (z-score),[13],-0.389
same,glycan array binding signal (z-score),[14],-0.38
same,glycan array binding signal (z-score),[15],-0.376
same,glycan array binding signal (z-score),[16],-0.373
same,glycan array binding signal (z-score),[17],-0.366
same,glycan array binding signal (z-score),[18],0.377
same,glycan array binding signal (z-score),[19],-0.28
same,glycan array binding signal (z-score),[20],-0.432
same,glycan array binding signal (z-score),[21],-0.355
same,glycan array binding signal (z-score),[22],-0.358
same,glycan array binding signal (z-score),[23],-0.31
same,glycan array binding signal (z-score),[24],-0.437
same,glycan array binding signal (z-score),[25],-0.458
same,glycan array binding signal (z-score),[26],-0.43
same,glycan array binding signal (z-score),[27],0.365
same,glycan array binding signal (z-score),[28],-0.246
same,glycan array binding signal (z-score),[29],2.87
same,glycan array binding signal (z-score),[30],0.959
same,glycan array binding signal (z-score),[31],1.32
same,glycan array binding signal (z-score),[32],0.701
same,glycan array binding signal (z-score),[33],0.893
same,glycan array binding signal (z-score),[34],0.07
same,glycan array binding signal (z-score),[35],-0.4
same,glycan array binding signal (z-score),[36],-0.488
same,glycan array binding signal (z-score),[37],0.719
